Measurements reported in patent US20100260668A1 (published 2010).

What was measured:
hIGF1 = hIGF1 (human, UniProt P05019 partial chain); assay: cell-based or functional assay
IGF2 = IGF2 (UniProt P01344 partial chain); assay: cell-based or functional assay
VEGF [1] = target: T1, VEGF (UniProt P15692 27-191, limits assumed); assay: direct bind ELISA, N-terminal VD
T1 construct: bought antigen coated on the ELISA plate
T1 sequence (looked up): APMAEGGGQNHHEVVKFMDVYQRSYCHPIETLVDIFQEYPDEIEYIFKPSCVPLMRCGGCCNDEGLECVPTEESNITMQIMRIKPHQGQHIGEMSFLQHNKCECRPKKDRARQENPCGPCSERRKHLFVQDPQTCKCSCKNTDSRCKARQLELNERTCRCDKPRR

PlGF = target: T2, PlGF (UniProt P49763-2 21-149, limits assumed); assay: direct bind ELISA, C-terminal VD
T2 construct: bought antigen coated on the ELISA plate; also called Placental GF
T2 sequence (looked up): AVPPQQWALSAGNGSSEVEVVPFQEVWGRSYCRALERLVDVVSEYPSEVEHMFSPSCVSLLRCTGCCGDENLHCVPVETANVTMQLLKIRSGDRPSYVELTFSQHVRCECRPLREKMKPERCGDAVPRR

biotinylated VEGF = target: T3, biotinylated VEGF (UniProt P15692-4 27-191, limits assumed, biotinylated); assay: capture ELISA, DVD-Ig captured by anti-human Fc, biotinylated VEGF; C-terminal VD
T3 sequence (looked up): T1 sequence (looked up)

VEGF [2] = target: T4, VEGF (UniProt P15692-4 27-191); assay: SPR (Biacore); C-terminal VD
T4 sequence (looked up): T1 sequence (looked up)

[3] = target: T5, human DLL4 extracellular domain (human, UniProt Q9NR61 partial chain, biotin label in the Notch-1 competition ELISA (sites not given)); assay: competition ELISA: biotin-labelled human DLL4 ECD pre-mixed with DVD-Ig, then on coated human Notch-1 (competitor Notch-1)
T5 construct: extracellular domain; also called biotin labeled human DLL4 extracellular domain

DLL4 = target: T6, DLL4 (human, UniProt Q9NR61 27-685); assay: flow cytometry on cells carrying the target, 2 ug/mL; N-terminal VD
T6 construct: whole, on cells; also called human DLL4

B1: DVD042 (bispecific antibody, human IgG1, kappa)
heavy: QVQLVQSGAEVKKPGASVKVSCKASGYTFTSYDINWVRQATGQGLEWMGWMNPNSGNTGYAQKFQGRVTMTRNTSISTAYMELSSLRSEDTAVYYCARDPYYYYYGMDVWGQGTTVTVSSASTKGPEVQLVESGGGLVQPGGSLRLSCAASGYTFTNYGMNWVRQAPGKGLEWVGWINTYTGEPTYAADFKRRFTFSLDTSKSTAYLQMNSLRAEDTAVYYCAKYPHYYGSSHWYFDVWGQGTLVTVSS[omitted - human IgG1 constant region]
light: QSVLTQPPSVSAAPGQKVTISCSGSSSNIENNHVSWYQQLPGTAPKLLIYDNNKRPSGIPDRFSGSKSGTSATLGITGLQTGDEADYYCETWDTSLSAGRVFGGGTKLTVLGQPKAAPDIQMTQSPSSLSASVGDRVTITCSASQDISNYLNWYQQKPGKAPKVLIYFTSSLHSGVPSRFSGSGSGTDFTLTISSLQPEDFATYYCQQYSTVPWTFGQGTKVEIKRTVAAPSVFIFPPSDEQLKSGTASVVCLLNNFYPREAKVQWKVDNALQSGNSQESVTEQDSKDSTYSLSSTLTLSKADYEKHKVYACEVTHQGLSSPVTKSFNRGEC
hIGF1
  N-terminal VD pIGF1R Cellular Assay (hIGF1 Neutralization IC50 nM): 1.8 nM
IGF2
  N-terminal VD pIGFR1 Cellular Assay (IGF2 induced IC50 nM): 0.3 nM

B2: DVD588 (bispecific antibody, human IgG1, kappa)
heavy: EVQLVESGGGLVQPGGSLRLSCAASGYTFTNYGMNWVRQAPGKGLEWVGWINTYTGEPTYAADFKRRFTFSLDTSKSTAYLQMNSLRAEDTAVYYCAKYPHYYGSSHWYFDVWGQGTLVTVSSASTKGPSVFPLAPQVQLQQSGAELVKPGASVKISCKASGYTFTDYYINWVKLAPGQGLEWIGWIYPGSGNTKYNEKFKGKATLTIDTSSSTAYMQLSSLTSEDTAVYFCVRDSPFFDYWGQGTLLTVSS[omitted - human IgG1 constant region]
light: DIQMTQSPSSLSASVGDRVTITCSASQDISNYLNWYQQKPGKAPKVLIYFTSSLHSGVPSRFSGSGSGTDFTLTISSLQPEDFATYYCQQYSTVPWTFGQGTKVEIKRTVAAPDIVLTQSPDSLAVSLGERVTMNCKSSQSLLNSGMRKSFLAWYQQKPGQSPKLLIYWASTRESGVPDRFTGSGSGTDFTLTISSVQAEDVAVYYCKQSYHLFTFGSGTKLEIKRTVAAPSVFIFPPSDEQLKSGTASVVCLLNNFYPREAKVQWKVDNALQSGNSQESVTEQDSKDSTYSLSSTLTLSKADYEKHKVYACEVTHQGLSSPVTKSFNRGEC
notes: HC linker long, LC linker short; also called DVD-Ig DVD588
VEGF [1]
  EC50: 4.1 nM
PlGF
  EC50: 1.84 nM

B3: DVD050 (bispecific antibody, human IgG1, kappa)
heavy: EVQLVESGGGLVQPGGSLRLSCAASGFSFSSEPISWVRQAPGKGLEWVSSITGKNGYTYYADSVKGRFTISADTSKNTAYLQMNSLRAEDTAVYYCARWGKKVYGMDVWGQGTLVTVSSASTKGPEVQLVESGGGLVQPGGSLRLSCAASGYTFTNYGMNWVRQAPGKGLEWVGWINTYTGEPTYAADFKRRFTFSLDTSKSTAYLQMNSLRAEDTAVYYCAKYPHYYGSSHWYFDVWGQGTLVTVSS[omitted - human IgG1 constant region]
light: DIQMTQSPSSLSASVGDRVTITCRASQSISSYLAWYQQKPGKAPKLLIYGASSRASGVPSRFSGSGSGTDFTLTISSLQPEDFATYYCQQYMSVPITFGQGTKVEIKRTVAAPDIQMTQSPSSLSASVGDRVTITCSASQDISNYLNWYQQKPGKAPKVLIYFTSSLHSGVPSRFSGSGSGTDFTLTISSLQPEDFATYYCQQYSTVPWTFGQGTKVEIKRTVAAPSVFIFPPSDEQLKSGTASVVCLLNNFYPREAKVQWKVDNALQSGNSQESVTEQDSKDSTYSLSSTLTLSKADYEKHKVYACEVTHQGLSSPVTKSFNRGEC
notes: DVD-Ig; also called NRP1 / VEGF DVD-Ig; DVD050H
Biotinylated VEGF
  EC50: 2.3 nM

B4: DVD038 (bispecific antibody, human IgG1, kappa)
heavy: [omitted - about 120 residues]ASTKGPEVQLVESGGGLVQPGGSLRLSCAASGYTFTNYGMNWVRQAPGKGLEWVGWINTYTGEPTYAADFKRRFTFSLDTSKSTAYLQMNSLRAEDTAVYYCAKYPHYYGSSHWYFDVWGQGTLVTVSS[omitted - human IgG1 constant region]
light: [omitted - about 100 residues]RTVAAPDIQMTQSPSSLSASVGDRVTITCSASQDISNYLNWYQQKPGKAPKVLIYFTSSLHSGVPSRFSGSGSGTDFTLTISSLQPEDFATYYCQQYSTVPWTFGQGTKVEIKRTVAAPSVFIFPPSDEQLKSGTASVVCLLNNFYPREAKVQWKVDNALQSGNSQESVTEQDSKDSTYSLSSTLTLSKADYEKHKVYACEVTHQGLSSPVTKSFNRGEC
notes: N-terminal VD HER-2, C-terminal VD VEGF; also called DVD038H; DVD038L
VEGF [2]
  koff: < 1e-06 s⁻¹
  kon: 36700 M⁻¹ s⁻¹

B5: DVD044 (DLL4 (seq. 1) N-terminal / VEGF (seq. 1) C-terminal DVD-Ig) (bispecific antibody, human IgG1, kappa)
heavy: EVQLVESGGGLVQPGGSLRLSCAASGFTFTDNWISWVRQAPGKGLEWVGYISPNSGFTYYADSVKGRFTISADTSKNTAYLQMNSLRAEDTAVYYCARDNFGGYFDYWGQGTLVTVSSASTKGPEVQLVESGGGLVQPGGSLRLSCAASGYTFTNYGMNWVRQAPGKGLEWVGWINTYTGEPTYAADFKRRFTFSLDTSKSTAYLQMNSLRAEDTAVYYCAKYPHYYGSSHWYFDVWGQGTLVTVSS[omitted - human IgG1 constant region]
light: DIQMTQSPSSLSASVGDRVTITCRASQDVSTAVAWYQQKPGKAPKLLIYSASFLYSGVPSRFSGSGSGTDFTLTISSLQPEDFATTYYCQQSYTGTVTFGQGTKVEIKRTVAAPDIQMTQSPSSLSASVGDRVTITCSASQDISNYLNWYQQKPGKAPKVLIYFTSSLHSGVPSRFSGSGSGTDFTLTISSLQPEDFATYYCQQYSTVPWTFGQGTKVEIKRTVAAPSVFIFPPSDEQLKSGTASVVCLLNNFYPREAKVQWKVDNALQSGNSQESVTEQDSKDSTYSLSSTLTLSKADYEKHKVYACEVTHQGLSSPVTKSFNRGEC
notes: also called DVD044H/DVD044L
[3]
  IC50: 0.5 nM

B6: DVD257 (DLL-4 (seq. 1) N-terminal / PLGF (seq. 1) C-terminal DVD-Ig) (bispecific antibody, human IgG1, kappa)
heavy: EVQLVESGGGLVQPGGSLRLSCAASGFTFTDNWISWVRQAPGKGLEWVGYISPNSGFTYYADSVKGRFTISADTSKNTAYLQMNSLRAEDTAVYYCARDNFGGYFDYWGQGTLVTVSSASTKGPQVQLQQSGAELVKPGASVKISCKASGYTFTDYYINWVKLAPGQGLEWIGWIYPGSGNTKYNEKFKGKATLTIDTSSSTAYMQLSSLTSEDTAVYFCVRDSPFFDYWGQGTLLTVSS[omitted - human IgG1 constant region]
light: DIQMTQSPSSLSASVGDRVTITCRASQDVSTAVAWYQQKPGKAPKLLIYSASFLYSGVPSRFSGSGSGTDFTLTISSLQPEDFATTYYCQQSYTGTVTFGQGTKVEIKRTVAAPDIVLTQSPDSLAVSLGERVTMNCKSSQSLLNSGMRKSFLAWYQQKPGQSPKLLIYWASTRESGVPDRFTGSGSGTDFTLTISSVQAEDVAVYYCKQSYHLFTFGSGTKLEIKRTVAAPSVFIFPPSDEQLKSGTASVVCLLNNFYPREAKVQWKVDNALQSGNSQESVTEQDSKDSTYSLSSTLTLSKADYEKHKVYACEVTHQGLSSPVTKSFNRGEC
notes: also called 7H; VD257L
[3]
  IC50: 0.38 nM

B7: DVD044 (bispecific antibody, human IgG1, kappa)
heavy: B5 heavy
light: B5 light
notes: DVD-Ig; also called DLL4 and VEGF DVD-Ig
DLL4
  FACS Geometric Mean N-terminal: 297

B8: DVD257 (bispecific antibody, human IgG1, kappa)
heavy: B6 heavy
light: B6 light
notes: DVD-Ig; outer AB015 (DLL4), inner AB047 (PlGF); also called DLL4 and PlGF DVD-Ig
DLL4
  FACS Geometric Mean N-terminal: 274

B9: DVD580 (bispecific antibody, human IgG1, kappa)
heavy: B2 heavy
light: DIQMTQSPSSLSASVGDRVTITCSASQDISNYLNWYQQKPGKAPKVLIYFTSSLHSGVPSRFSGSGSGTDFTLTISSLQPEDFATYYCQQYSTVPWTFGQGTKVEIKRTVAAPSVFIFPPDIVLTQSPDSLAVSLGERVTMNCKSSQSLLNSGMRKSFLAWYQQKPGQSPKLLIYWASTRESGVPDRFTGSGSGTDFTLTISSVQAEDVAVYYCKQSYHLFTFGSGTKLEIKRTVAAPSVFIFPPSDEQLKSGTASVVCLLNNFYPREAKVQWKVDNALQSGNSQESVTEQDSKDSTYSLSSTLTLSKADYEKHKVYACEVTHQGLSSPVTKSFNRGEC
notes: HC linker long, LC linker long; also called DVD-Ig DVD580
PlGF
  EC50: 34.1 nM
